# Laboratory results: publication PMC4336329 (PLoS ONE, 2015)
# The campaign covered roughly 310,000 compounds. About 2,200 (0.71%) showed an effect of 50% or more. Effects have a minus sign here. The list shows a part of the results.
# Target: human ether-à-go-go-related gene (hERG) potassium channel (human, UniProt Q12809)
# Experiment: primary screen, population patch clamp on CHO cells stably expressing hERG
# Sequence of human ether-à-go-go-related gene (hERG) potassium channel (Q12809 whole entry, looked up): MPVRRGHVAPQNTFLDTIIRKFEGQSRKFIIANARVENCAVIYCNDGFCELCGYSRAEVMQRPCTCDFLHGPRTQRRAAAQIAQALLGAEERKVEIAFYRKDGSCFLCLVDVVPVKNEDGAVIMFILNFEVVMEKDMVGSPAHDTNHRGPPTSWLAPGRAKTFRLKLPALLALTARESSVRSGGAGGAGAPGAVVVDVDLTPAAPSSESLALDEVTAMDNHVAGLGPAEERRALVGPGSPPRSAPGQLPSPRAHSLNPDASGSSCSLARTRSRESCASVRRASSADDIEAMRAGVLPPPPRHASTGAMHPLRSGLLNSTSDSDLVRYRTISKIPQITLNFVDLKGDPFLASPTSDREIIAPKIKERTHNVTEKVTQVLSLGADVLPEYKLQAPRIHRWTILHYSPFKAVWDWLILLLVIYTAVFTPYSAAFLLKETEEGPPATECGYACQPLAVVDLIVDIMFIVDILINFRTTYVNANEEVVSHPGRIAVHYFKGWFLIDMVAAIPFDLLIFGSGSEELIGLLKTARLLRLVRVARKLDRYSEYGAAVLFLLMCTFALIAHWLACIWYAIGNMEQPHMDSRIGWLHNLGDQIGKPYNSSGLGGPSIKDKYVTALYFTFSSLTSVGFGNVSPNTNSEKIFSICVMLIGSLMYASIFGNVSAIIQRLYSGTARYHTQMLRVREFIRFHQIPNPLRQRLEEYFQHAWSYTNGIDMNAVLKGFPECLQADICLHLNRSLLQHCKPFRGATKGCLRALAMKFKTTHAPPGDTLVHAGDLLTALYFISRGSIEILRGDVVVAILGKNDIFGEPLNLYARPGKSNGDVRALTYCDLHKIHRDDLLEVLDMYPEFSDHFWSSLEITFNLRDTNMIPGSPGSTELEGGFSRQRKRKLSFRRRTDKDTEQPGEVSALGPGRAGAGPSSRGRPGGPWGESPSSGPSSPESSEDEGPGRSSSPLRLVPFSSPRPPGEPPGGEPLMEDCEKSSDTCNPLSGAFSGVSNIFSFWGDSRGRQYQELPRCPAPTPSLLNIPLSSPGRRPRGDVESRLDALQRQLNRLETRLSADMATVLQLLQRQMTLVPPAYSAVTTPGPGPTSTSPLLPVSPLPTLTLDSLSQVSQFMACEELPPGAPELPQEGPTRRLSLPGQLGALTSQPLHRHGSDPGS
row,Compound,"hERG current change (%, negative = inhibition) at 1uM [%]"
1,Cc1ccc(-n2cccc2/C=C2/C(=N)N3C(=NC2=O)SN=C3S(C)(=O)=O)cc1,4.78
2,CCOC(=O)c1ccc(NC(=S)Nc2ccccn2)cc1,8.79
3,COCCCNCCCOc1ccc(Cl)cc1C(C)(C)C,-12.8
4,CCOc1cc(C(=O)OCc2ccc([N+](=O)[O-])cc2)ccc1OCC(=O)N1CCOCC1,3.84
5,C=CCc1cccc2cc(C(=O)NNC(=O)CC#N)c(=O)oc12,8.04
6,Br.NC12CC3CC(C1)CC(O)(C3)C2,12.5
7,Brc1ccc(-c2noc(CCc3ccccc3)n2)o1,5.88
8,CCOc1ccc(C(C)=O)cc1CSc1nnc(-c2cccs2)n1CC1CCCO1 (centres unmarked),-10.1
9,Cc1ccc(C2(C)NC(=O)N(CC(=O)Nc3cc(S(=O)(=O)N(C)C)ccc3C)C2=O)cc1 (centres unmarked),5.62
10,COc1ccc(-c2[nH]nc(-c3ccccc3)c2-c2nc3ccccc3[nH]2)cc1,15.6
11,Cc1ccc(C(=O)CCC(=O)NNC(=O)c2ccccc2O)cc1,8.71
12,COc1ccc(NC(=O)CC(NCCc2ccccc2)C(=O)O)c(OC)c1 (centres unmarked),5.85
13,CCOc1ccccc1N1CC(C(=O)N2CCN(Cc3ccc(C#N)cc3)CC2)CC1=O (centres unmarked),-43.4
14,CCOC(=O)c1cnc(-c2ccccc2)nc1Oc1ccc(OC)cc1,11.8
15,CSc1ccc(C#N)cc1NC(=O)c1ccccc1,11
16,CC(O)c1cccc(NC(=O)CCCc2ccccc2)c1 (centres unmarked),15
17,Cn1nnc(NCc2cc(Br)ccc2OCc2cccs2)n1,7.22
18,C[C@H]1CCC/C=C/[C@@H]2C[C@H](O)C[C@H]2[C@H](O)/C=C/C(=O)O1 [56463468],15.9
19,CC(C)SC1=NC(C)(C)C=C(/C=C/c2c(Cl)cccc2Cl)N1,7.09
20,CCOc1ccc(/C=N/n2nnnc2N)cc1O,5.81
21,O=C(COc1ccc(Cc2ccccc2)cc1)c1ccc(F)cc1,9.98
22,O=c1c2ccccc2nnn1CSc1nnc(-c2ccco2)o1,1.47
23,Nc1nc(-c2nonc2N)no1,6.05

row,Compound,"hERG current change (%, negative = inhibition) at 1uM [%]"
1,COc1ccc(NC(=O)c2ccc(-c3ccc(C)c4ccccc34)o2)cc1,3.11
2,COCCN(C(=O)Cn1nnc2ccccc21)C(C(=O)NC1CCCC1)c1ccc(OC)cc1OC (centres unmarked),7.32
3,Cc1ccc(CNC(=O)c2ccc(C)c(S(=O)(=O)N3CCCCC3)c2)cc1,-3.75
4,CSc1sc(C(=O)NCC2CC2)c(-c2cccs2)c1C#N,13.5
5,CC(C)OC(=O)c1nnn(-c2nonc2N)c1CSc1ccccn1,2.14
6,CC(C)CC(NC(N)=O)C(=O)NCCc1ccc(Cl)cc1Cl (centres unmarked),-0.28
7,CCOc1ccccc1C(=O)NCC(=O)NCC(c1ccco1)N1CCCCC1 (centres unmarked),12.4
8,COC(=O)c1sccc1NC(=S)N1CCC(C(N)=O)CC1,10.7
9,COc1ccc(NC(=O)CCCNC(=O)Cn2cnc3sc(C)c(C)c3c2=O)cc1OC,9.95
10,CCc1nc(SCC(=O)N2CCCc3ccccc32)c2oc3ccccc3c2n1,-13.1
11,N/C(COc1cccc(Cl)c1)=N\O,9.2
12,CC(C)(C)CC(=O)NC(=S)NCc1ccco1,11.4
13,Cc1ccc(NC(CNS(=O)(=O)c2ccc(Cl)cc2)c2ccccc2)cc1 (centres unmarked),1.89
14,COCCOC(=O)/C=C1/NC(=O)CS1,-0.415
15,O=C(O)CC12CC3CC(C1)CC(n1ncc(NCc4ccco4)c(Cl)c1=O)(C3)C2,9.7
16,O=C(CNC(=O)c1ccccc1)OCc1cc(=O)n2cc(Br)ccc2n1,-20.5
17,CC(C)(Oc1ccc(Cl)cc1)C(=O)NCc1ccc(S(N)(=O)=O)cc1,8.83
18,CC1=CCC2C(=O)N(c3ccc(Br)cc3C)C(=O)C2C1 (centres unmarked),-7.23
19,Cc1ccc2oc(=O)c3cc(C(=O)NCCCN4CCCC(C)C4)sc3c2c1 (centres unmarked),10.8
20,Br.CCCc1cc(-c2nc(-c3ccc(C)cc3)cs2)ccn1,1.37
21,O=C(O)Cn1ncn(-c2ccc(OC(F)(F)F)cc2)c1=O,17.6
22,COc1cc(-c2nnc(SCC(=O)Nc3ccc4c(c3)OCCO4)o2)cc(OC)c1OC,5.51
23,COc1ccc2cc(C(=O)COC(=O)COc3ccc4c(C)cc(=O)oc4c3)ccc2c1,15.4

row,Compound,"hERG current change (%, negative = inhibition) at 1uM [%]"
1,O=C(N/N=C/c1ccc(-c2ccc(Br)cc2)o1)c1ccc2c(c1)OCO2,1.12
2,COc1cc([N+](=O)[O-])cc(/C=C2/SC(=S)N(Cc3ccccc3)C2=O)c1O,16.1
3,COc1ccc(OC)c(C2C(C#N)=C(N)Oc3cc(N)ccc32)c1 (centres unmarked),9.59
4,C/C(=N\Nc1cccc(C(=O)O)c1)c1ccc(Cl)s1,18.2
5,C=COCCCNc1ncnc2sc(-c3ccccc3)cc12,15.7
6,COC(=O)c1ccccc1NC(=O)C(C)Oc1ccccc1 (centres unmarked),13
7,COc1ccc2[nH]cc(CCNC(=O)c3ccc([N+](=O)[O-])cc3)c2c1,3.4
8,Cc1ccc(Nc2ccccc2N)cc1,7.42
9,O=P(O)(O)Cc1c(Cl)cccc1Cl,7.74
10,COC(=O)c1c(NC(=O)Nc2ccc(Cl)cc2)sc(C)c1C,6
11,CC1CCCCC1NC(=O)CCCCn1c(=O)[nH]c2ccsc2c1=O (centres unmarked),20.2
12,O=C(c1cc(-c2ccccc2)nc2ccccc12)N1CCN(c2ccccn2)CC1,1.88
13,CN(O)/C=c1/ccc2c(n1)C(=O)C=CC=2,-4.54
14,COc1cccc(S(=O)(=O)Nc2ccc(C(=O)NCc3ccco3)cc2)c1,13.6
15,CCC(=O)N1CCN(C(=O)CC)C1c1ccccc1,6.92
16,CN(c1ccccc1)S(=O)(=O)c1ccc(C(=O)Nc2ncccc2O)cc1,8.81
17,CCOC(=O)c1cnn(-c2cccc(Cl)c2)c1N,-0.745
18,C1=C(c2ccccc2)CCN(c2ncnc3nc[nH]c23)C1,-4.38
19,Cc1ccccc1Cn1c(=O)c2c(nc3n2CCCN3Cc2ccccc2)n(C)c1=O,-4.58
20,CC(C)(C)C1CCC(=NNC(=O)c2cc3c(s2)CCCC3)CC1 (centres unmarked),9.98
21,Cc1cc2[nH]c(=O)c(=O)[nH]c2cc1S(=O)(=O)NC1CCCCC1C (centres unmarked),4.22
22,CN(C)CCNC(=O)C(=O)Nc1cc2c3c(c1)CCN3C(=O)CC2,25.1
23,O=C(O)c1ccccc1C(=O)NC1CCCc2ccccc21 (centres unmarked),7.62

row,Compound,"hERG current change (%, negative = inhibition) at 1uM [%]"
1,Cc1cccc(/C=N\NC(=O)c2sccc2-n2cccc2)c1,12.6
2,COc1cccc(C(=O)NCC(c2cccs2)N2CCc3ccccc32)c1 (centres unmarked),9.51
3,CCOCC(=O)Nc1cccc(SC)c1,7.24
4,c1cc2c(cc1-c1[nH]ncc1CN1C[C@H]3CC[C@H]1C3)OCO2,5.45
5,O=C(CNC(=O)OCc1ccccc1)Oc1cc2oc(=O)cc(-c3ccccc3)c2cc1Cl,14.6
6,O=C(COC(=O)COc1ccccc1)Nc1ncc([N+](=O)[O-])s1,8
7,COc1ccc(-c2ccc3c(c2)S(=O)(=O)c2cccc(C(=O)NC4CCCC4)c2C3=O)cc1OC,10.5
8,CCn1cc(C(=O)O)c(=O)c2cnc(N3CCN(C(=S)NC(=O)c4ccccc4)CC3)nc21,11.2
9,CC(=O)c1c(C)nc2cc(Cl)ccc2c1N,-2.27
10,Cc1cccc(CCNC(=O)C2CCN(S(=O)(=O)c3cccc4cccnc34)CC2)c1,16.6
11,O=C(Cc1noc2ccccc12)NNC(=S)Nc1ccc(Cl)cc1,6.42
12,Cc1ccccc1C(=O)c1cccn1CC(=O)N1CCCCC1,13.2
13,COc1cc(S(=O)(=O)N2CCCCC2)ccc1NC(=O)c1ccccc1Cl,1.79
14,Nc1c(Cl)cc(-c2cn(CCC(=O)O)c(-c3ccncc3)n2)cc1Cl,19.9
15,COc1ccc(N=Nc2ccc(O)c3ncccc23)cc1,8.06
16,CCN(C(=O)CSc1nnc(Cn2nnc3ccccc32)o1)c1nc(C)cs1,11.7
17,CCOC(=O)c1c(N)sc(N)c1C(=O)OCC,7.28
18,CCCc1nnc(NC(=S)Nc2ccccc2)s1,12.5
19,CCCC[C@@H]1C[C@H]1[C@@H](NC(=O)c1ccco1)c1ccc(C(=O)OC)cc1,6.15
20,COc1cccc(C(=O)N(Cc2cccs2)C2CCS(=O)(=O)C2)c1 (centres unmarked),13.2
21,Cc1ccccc1NC(=S)N(Cc1ccccc1)Cc1cccnc1,5.75
22,COc1ccc(NC(=O)CN(C)C(=O)C2CCCO2)cc1 (centres unmarked),7.06
23,CCOc1ccc(CNC(=O)Cn2c(=O)c3cccn3c3ccccc32)cc1,11.7
